These are yes or no findings as the source states them, for the method shown. Binding seen in cells or lysates may run through a third protein. Some binding calls cover weakened binding; strength is not graded here. Sequences can lack the tags named with a protein.

The target in assay [1] is isolated JmjN domain of KDM4C p.E24A/E25A with a C-terminal YN or YC tag (human) (UniProt Q9H3R0). The experiment in a line: split reporter; BiFC (Venus YN + YC), live cell confocal imaging of HEK293 cells 20 h after co-transfection, 37°C, 5% CO2.
Assay [2] addresses isolated JmjN domain of KDM4C p.H42A/R43A with a C-terminal YN or YC tag (human) (UniProt Q9H3R0). The description is as above.
Assay [3] has as its target KDM4C lacking the JmjN domain, with a C-terminal YN or YC tag (human) (UniProt Q9H3R0). The experiment in a line: split reporter; BiFC (Venus YN + YC), immunofluorescence microscopy of fixed, permeabilised HEK293 cells 20 h after co-transfection; transfected cells marked by anti-YFP, anti-KDM4C or anti-HA.
For assay [4] the target is unchanged. Description: split reporter; BiFC (Venus YN + YC), live cell confocal imaging of HEK293 cells 20 h after co-transfection, 37°C, 5% CO2.
For assay [5], the target named is KDM4C double mutant p.E24A/E25A + p.H42A/R43A with a C-terminal YN or YC tag (human) (UniProt Q9H3R0). The experiment in a line: split reporter; BiFC (Venus YN + YC), immunofluorescence microscopy of fixed, permeabilised HEK293 cells 20 h after co-transfection; transfected cells marked by anti-YFP, anti-KDM4C or anti-HA.

B1: isolated JmjN domain of KDM4C p.E24A/E25A with a C-terminal YN or YC tag (domain or fragment, UniProt Q9H3R0 1-58)
chain: MEVAEVESPLNPSCKIMTFRPSMAAFREFNKYLAYMESKGAHRAGLAKVIPPKEWKPR
Regarding B1, in assay [1], the binding entry was “binds”.

B2: isolated JmjN domain of KDM4C p.H42A/R43A with a C-terminal YN or YC tag (domain or fragment, UniProt Q9H3R0 1-58)
chain: MEVAEVESPLNPSCKIMTFRPSMEEFREFNKYLAYMESKGAAAAGLAKVIPPKEWKPR
On to B2, for which, in assay [2], the binding result was “binds”.

B3: KDM4C lacking the JmjN domain, with a C-terminal YN or YC tag (enzyme, UniProt Q9H3R0)
chain: MEVAEVESPLNPSCKQCYDDIDNLLIPAPIQQMVTGQSGLFTQYNIQKKAMTVKEFRQLANSGKYCTPRYLDYEDLERKYWKNLTFVAPIYGADINGSIYDEGVDEWNIARLNTVLDVVEEECGISIEGVNTPYLYFGMWKTTFAWHTEDMDLYSINYLHFGEPKSWYAIPPEHGKRLERLAQGFFPSSSQGCDAFLRHKMTLISPSVLKKYGIPFDKITQEAGEFMITFPYGYHAGFNHGFNCAESTNFATVRWIDYGKVAKLCTCRKDMVKISMDIFVRKFQPDRYQLWKQGKDIYTIDHTKPTPASTPEVKAWLQRRRKVRKASRSFQCARSTSKRPKADEEEEVSDEVDGAEVPNPDSVTDDLKVSEKSEAAVKLRNTEASSEEESSASRMQVEQNLSDHIKLSGNSCLSTSVTEDIKTEDDKAYAYRSVPSISSEADDSIPLSSGYEKPEKSDPSELSWPKSPESCSSVAESNGVLTEGEESDVESHGNGLEPGEIPAVPSGERNSFKVPSIAEGENKTSKSWRHPLSRPPARSPMTLVKQQAPSDEELPEVLSIEEEVEETESWAKPLIHLWQTKSPNFAAEQEYNATVARMKPHCAICTLLMPYHKPDSSNEENDARWETKLDEVVTSEGKTKPLIPEMCFIYSEENIEYSPPNAFLEEDGTSLLISCAKCCVRVHASCYGIPSHEICDGWLCARCKRNAWTAECCLCNLRGGALKQTKNNKWAHVMCAVAVPEVRFTNVPERTQIDVGRIPLQRLKLKCIFCRHRVKRVSGACIQCSYGRCPASFHVTCAHAAGVLMEPDDWPYVVNITCFRHKVNPNVKSKACEKVISVGQTVITKHRNTRYYSCRVMAVTSQTFYEVMFDDGSFSRDTFPEDIVSRDCLKLGPPAEGEVVQVKWPDGKLYGAKYFGSNIAHMYQVEFEDGSQIAMKREDIYTLDEELPKRVKARFSTASDMRFEDTFYGADIIQGERKRQRVLSSRFKNEYVADPVYRTFLKSSFQKKCQKRQ
B3: the binding entry in assay [3] and in assay [4] was “no binding” throughout.

B4: KDM4C double mutant p.E24A/E25A + p.H42A/R43A with a C-terminal YN or YC tag (enzyme, UniProt Q9H3R0 1-1056)
chain: MEVAEVESPLNPSCKIMTFRPSMAAFREFNKYLAYMESKGAAAAGLAKVIPPKEWKPRQCYDDIDNLLIPAPIQQMVTGQSGLFTQYNIQKKAMTVKEFRQLANSGKYCTPRYLDYEDLERKYWKNLTFVAPIYGADINGSIYDEGVDEWNIARLNTVLDVVEEECGISIEGVNTPYLYFGMWKTTFAWHTEDMDLYSINYLHFGEPKSWYAIPPEHGKRLERLAQGFFPSSSQGCDAFLRHKMTLISPSVLKKYGIPFDKITQEAGEFMITFPYGYHAGFNHGFNCAESTNFATVRWIDYGKVAKLCTCRKDMVKISMDIFVRKFQPDRYQLWKQGKDIYTIDHTKPTPASTPEVKAWLQRRRKVRKASRSFQCARSTSKRPKADEEEEVSDEVDGAEVPNPDSVTDDLKVSEKSEAAVKLRNTEASSEEESSASRMQVEQNLSDHIKLSGNSCLSTSVTEDIKTEDDKAYAYRSVPSISSEADDSIPLSSGYEKPEKSDPSELSWPKSPESCSSVAESNGVLTEGEESDVESHGNGLEPGEIPAVPSGERNSFKVPSIAEGENKTSKSWRHPLSRPPARSPMTLVKQQAPSDEELPEVLSIEEEVEETESWAKPLIHLWQTKSPNFAAEQEYNATVARMKPHCAICTLLMPYHKPDSSNEENDARWETKLDEVVTSEGKTKPLIPEMCFIYSEENIEYSPPNAFLEEDGTSLLISCAKCCVRVHASCYGIPSHEICDGWLCARCKRNAWTAECCLCNLRGGALKQTKNNKWAHVMCAVAVPEVRFTNVPERTQIDVGRIPLQRLKLKCIFCRHRVKRVSGACIQCSYGRCPASFHVTCAHAAGVLMEPDDWPYVVNITCFRHKVNPNVKSKACEKVISVGQTVITKHRNTRYYSCRVMAVTSQTFYEVMFDDGSFSRDTFPEDIVSRDCLKLGPPAEGEVVQVKWPDGKLYGAKYFGSNIAHMYQVEFEDGSQIAMKREDIYTLDEELPKRVKARFSTASDMRFEDTFYGADIIQGERKRQRVLSSRFKNEYVADPVYRTFLKSSFQKKCQKRQ
For the molecule B4, in assay [5], the binding result was “no binding”.

These data come from paper PMC5908291, “The JmjN domain as a dimerization interface and a targeted inhibitor of KDM4 demethylase activity” (Oncotarget, 2018).
